Measured values reported in PubChem BioAssay AID463173 (ICCB-Longwood Screening Facility, Harvard Medical School, 2010).
Screen size: about 52,000 compounds; about 4,300 (8.3%) were called active. Cut-off read from the data, not from the text of the source: active = survival mostly below about 52% (no sharp cut-off); inactive = mostly above about 56%. The list shows a part of the results.

Each compound was assayed on DeltatarO mutant (assay: growth inhibition of S. aureus wild type versus tarO mutant, primary screen, teichoic acid synthesis inhibitors, RN4220, OD600 (AID 463173)). Details: OD600, 18 h, stronger effect = lower value, screened at 18.75 µg/mL (by protocol).

Compound	survival
O=C(NCCc1ccccc1Cl)C1CCN(c2nc3ccccc3nc2C(F)(F)F)CC1	active: 37%
CC1(C)O[C@H]2[C@@H](O1)[C@@H](C(=O)Nc1ccccc1C(F)(F)F)O[C@@H]1OC(C)(C)O[C@@H]12	inactive: 106%
COc1ccc(-n2c(-c3ccco3)nc3c(cnn3-c3ccc(Cl)cc3)c2=O)cc1	inactive: 78%
O=C(CSc1ccc(-c2cccs2)nn1)Nc1ccccc1C(F)(F)F	inactive: 70%
Cc1ccc(NC(=O)C2CCCN(C(=O)c3cnn(-c4ccc(F)cc4)c3-n3cccc3)C2)c(Cl)c1 (stereo not drawn)	inactive: 87%
Cc1ccccc1CNC(=O)C(C)N(c1ccccc1)S(C)(=O)=O (stereo not drawn)	inactive: 69%
C#CCNC(=O)NC1CCCN(S(=O)(=O)c2ccc(C)cc2)C1 (stereo not drawn)	inactive: 100%
O=C(CCC1N=C2c3ccccc3N=C(SCc3ccc(F)cc3)N2C1=O)NCCc1ccccc1 (stereo not drawn)	inactive: 89%
CCOc1ccc(/C=C/c2nc(C#N)c(NCc3ccccc3)o2)cc1	inactive: 66%
COc1ccc(Cl)cc1NC(=O)C(C)Sc1nc2c(c(=O)[nH]1)CCCC2 (stereo not drawn)	inactive: 53%
CC(=O)c1cccc(NC(=O)CSc2nc(=O)n(Cc3ccco3)c3c2CCC3)c1	inactive: 83%
CCOc1ccccc1CNC(=O)c1ccc2c(c1)N(Cc1ccc(C)cc1)CCS2	inactive: 76%
Cc1cc(C)n(C(=O)CCCC(=O)O)n1	inactive: 74%
CCCCN(CC)C(=O)c1nn(C)c2c1CSc1ccccc1-2	inactive: 103%
Cc1oc(-c2cccc(Cl)c2)nc1CS(=O)(=O)CC(=O)NC(C)CCc1ccccc1 (stereo not drawn)	active: 32%
Cc1nc2scc(C)n2c(=O)c1S(=O)(=O)NCCc1ccccc1	inactive: 138%
Cc1cc(C)cc(N2C(=O)N(Cc3cccc(F)c3)c3ccccc3S2(=O)=O)c1	inactive: 82%
COc1ccc(N2CCN(C(=O)CSc3n[nH]c(-c4ccccc4Cl)n3)CC2)cc1	inactive: 81%
COc1ccc(Nc2oc(-c3ccc(COc4ccccc4C)o3)nc2C#N)cc1	inactive: 59%
Cc1cc(C)c(NC(=O)C(C)n2nnc3sc4c(c3c2=O)CCCC4)c(C)c1 (stereo not drawn)	inactive: 81%
Cc1ccc(C)c(CN2C(=O)c3ccccc3S(=O)(=O)c3ccc(C(=O)NCCC4=CCCCC4)cc32)c1	inactive: 58%
CCN(C(=O)c1cc2c(=O)oc3ccc(C)cc3c2s1)c1ccccc1C	inactive: 63%

Compound	survival
CCN(CC)S(=O)(=O)c1ccc2nc(NC(=O)c3cncc(Br)c3)sc2c1	inactive: 80%
Cc1cccn2c(=O)c(C(=O)NC(C)c3ccccc3)cnc12 (stereo not drawn)	inactive: 70%
Cc1ccc(OCc2nc(-c3ccc(C(=O)NCc4ccc(OC(C)C)cc4)cc3)oc2C)cc1	inactive: 91%
Cc1ccc(NC(=O)C2CCN(c3nn4cc(-c5ccc(C)cc5)nc4s3)CC2)cc1	inactive: 67%
CCCCCn1c(=O)[nH]c2cc(C(=O)N3CCN(c4cccc(C(F)(F)F)c4)CC3)ccc2c1=O	inactive: 66%
Cc1ccc(CNC(=O)CNS(=O)(=O)c2cccs2)cc1	inactive: 80%
COc1ccc(CNC(=O)c2oc3c(c2C)-c2nn(Cc4ccc(Cl)cc4)cc2CC3)cc1	inactive: 63%
CC(C)(C)c1ccc(C(=O)Nc2sc3c(c2C#N)CCC(C(C)(C)C)C3)cc1 (stereo not drawn)	inactive: 56%
O=C(Nc1ccc(Br)cc1)C1CCCN1S(=O)(=O)c1ccc(F)cc1 (stereo not drawn)	inactive: 66%
CCOc1ccc(NC(=O)Cn2c(=O)n(CC(=O)NCc3ccccc3Cl)c(=O)c3sccc32)cc1	inactive: 157%
CCc1ccccc1NC(=O)Nc1nnc(N(CC)c2ccccc2)s1	inactive: 76%
Cc1cc(NC(=O)CN2C(=O)c3cccnc3Sc3ccccc32)ccc1Br	inactive: 80%
c1cc2cc(C3=NCCN3)ccc2cc1C1=NCCN1	inactive: 85%
COc1ccc(OC)c2sc(N(Cc3cccnc3)C(=O)c3ccco3)nc12	inactive: 88%
Cc1ccc(CNC(=O)c2cc(-c3ccc(Cl)cc3)on2)cc1	inactive: 93%
Cc1ccc2oc(=O)c(S(=O)(=O)c3ccc(C(C)(C)C)cc3)cc2c1	inactive: 92%
CCCNC(=O)N(C)c1ncnnc1NC	inactive: 98%
Cc1nc2ccn(Cc3cccnc3)c(=O)c2cc1C(=O)N1CCN(c2ccc(F)cc2)CC1	inactive: 115%
COC(=O)c1ccccc1NC(=O)c1cnc2c(-c3cccc(C)c3)c(C)nn2c1C	inactive: 128%
Cc1cc(NC(=O)Cc2ccccc2)no1	inactive: 75%
C=CCN1C(=O)CN=C1Nc1ccccc1	inactive: 88%
CN(C)CCNc1oc(-c2ccc(COc3ccc(Cl)cc3)o2)nc1C#N	inactive: 88%

Compound	survival
CCc1ccc(C(=O)c2cn(Cc3ccc(F)cc3)c3cc(OC)c(OC)cc3c2=O)cc1	inactive: 58%
Cc1cc(C)cc(Oc2nc3c(C)cccn3c(=O)c2/C=C(\C#N)c2nc3ccccc3s2)c1	inactive: 131%
COc1ccc(CCNC(=O)C(C)n2c(=O)cc(C(F)(F)F)c3c(C)nn(C)c32)cc1OC (stereo not drawn)	inactive: 89%
COc1ccc(N2CCN(Cc3nnc(-c4cccc(Br)c4)o3)CC2)cc1	inactive: 77%
CCS(=O)(=O)N1CC(=O)N(c2ccc(Cl)cc2)C(C)(C(=O)NC2CCCCCC2)C1 (stereo not drawn)	inactive: 115%
Cc1nnc(NC(=O)CSCc2cc(=O)c3ccccc3[nH]2)s1	inactive: 105%
COc1cc(OC)c(NS(=O)(=O)c2c(C(=O)N3CCC(C)CC3)c(C)n(C)c2C)cc1Cl	active: 17%
CCOC(=O)c1c(N2C(=O)C3C4C=CC(O4)C3C2=O)sc2c1CCCC2 (stereo not drawn)	inactive: 96%
Cc1cc(Nc2ccc(C(=O)O)c(O)c2)n2ncnc2n1	inactive: 72%
COc1ccc(CCNC(=O)CCn2c(=O)c3ccccc3n(Cc3ccccc3)c2=O)cc1OC	inactive: 92%
CC(C)c1nn2c(=O)cc(COC(=O)c3ccccc3NC(=O)c3cccc(Cl)c3)nc2s1	inactive: 88%
O=C(NCc1ccco1)c1ccc2c(c1)N(Cc1ccc(Cl)cc1)C(=O)c1ccccc1S2	inactive: 71%
CCOc1ccc(Nc2nc3c(S(=O)(=O)c4ccc(C(C)C)cc4)nnn3c3ccsc23)cc1	inactive: 53%
Cc1cc2nc(-c3ccc(NC(=O)c4cc5ccccc5o4)cc3)oc2cc1C	inactive: 51%
Cc1ccc(C)c(Cn2c(C(=O)OC(C)C)cc3c2ccn3C)c1	inactive: 100%
COc1ccc(CCn2c3c(c(=O)[nH]c2=O)C(NC(=O)c2ccc(C(C)(C)C)cc2)(C(F)(F)F)C(=O)N3)cc1OC (stereo not drawn)	inactive: 91%
COc1ccccc1Cc1nc2ccccc2nc1SCC(=O)N1CCN(c2ccccc2)CC1	inactive: 99%
CC(=O)c1cc(-c2ccc(F)cc2)n(CC(=O)Nc2cc(C)cc(C)c2)c1C	inactive: 93%
COc1cccc(NC(=O)/C(C#N)=C/c2c(C)n(Cc3ccc(Cl)cc3)c3ccccc23)c1	inactive: 77%
CC(=O)Nc1ccc(S(=O)(=O)NC2=NCN(CCO)CN2)cc1	inactive: 89%
Fc1cccc(-c2nnn3c2nc(NC2CCCCC2)c2ccccc23)c1	inactive: 59%
CC(C)C(c1nnnn1C1CCCC1)N(Cc1ccc(Cl)cc1)CC1CCCO1 (stereo not drawn)	inactive: 92%

Compound	survival
COc1ccccc1CNC(=O)CN1C(=O)COc2ccc(S(=O)(=O)NC3CCCC3)cc21	inactive: 95%
O=C(C1CCN(S(=O)(=O)Cc2ccccc2)CC1)N1CCN(c2cccc(C(F)(F)F)c2)CC1	inactive: 86%
CC1CCN(CC2CCN(C(=O)Nc3ccc(Br)cc3F)CC2)CC1	inactive: 67%
Cc1cccc(-n2c(CNC(=O)c3cccc(F)c3)nnc2SCC(=O)Nc2ccccc2F)c1	inactive: 68%
COc1cc(S(=O)(=O)NCCc2c(C)[nH]c3ccccc23)c(C)cc1C	inactive: 56%
CCc1cccc(-n2c(=O)c3cccnc3n2CC(=O)Nc2c(C)cc(C)cc2C)c1	inactive: 74%
COc1ccc(N(Cc2cc3cccc(C)c3[nH]c2=O)C(=O)c2cccc(Cl)c2)cc1	inactive: 67%
NCCCC(=O)OC1CCCCC1	inactive: 100%
On1c2c(c3c4nonc4ccc31)CCCC2	active: 0%
COc1ccc2nc(N(Cc3cccnc3)C(=O)Cc3ccccc3)sc2c1	inactive: 99%
Nc1nc(-c2ccccc2)nn1C(=O)c1cccs1	inactive: 77%
CN(C)S(=O)(=O)c1ccc(C(=O)NCCSc2c(-c3ccccc3)[nH]c3ccccc23)cc1	inactive: 68%
CC(=O)N1CCc2cc(S(=O)(=O)C(C)CC(=O)Nc3ccc(Br)c(C)c3)ccc21 (stereo not drawn)	active: -5%
COc1ccc(NC(=O)CSc2nc3c(oc4ccccc43)c(=O)n2Cc2ccco2)cc1Cl	inactive: 101%
CC1CCN(S(=O)(=O)c2nnc(NC(=O)c3cccc(Cl)c3)s2)CC1	active: 23%
COc1ccc(CNC(=O)CN2C(=O)CSc3ccc(S(=O)(=O)N4CCC(C)CC4)cc32)cc1	inactive: 69%
COc1ccc(/C=C/C(=O)Nc2nc(-c3cccs3)ns2)cc1	inactive: 51%
COc1ccc(CNC(=O)C2CCC(CNS(=O)(=O)c3ccc4c(c3)CCCC(=O)N4)CC2)cc1 (stereo not drawn)	inactive: 87%
COc1cc(-c2nc(Cn3nnc(C(=O)Nc4cccc(Cl)c4)c3C)c(C)o2)cc(OC)c1OC	inactive: 80%
CCc1ccc(C(=O)NCC2(c3ccccc3)CCOCC2)o1	inactive: 103%
Cc1ccc(Cl)cc1-n1ncc2c(N3CCN(Cc4ccccc4)CC3)ncnc21	inactive: 109%
CCOC(=O)c1c(NC(=O)c2ccc(S(=O)(=O)N(C)C3CCCCC3)cc2)sc2c1CCN(C(C)C)C2	inactive: 69%
